Data: paper PMC8602864, “The Molecular Assembly State of Drp1 Controls its Association With the Mitochondrial Recruitment Receptors Mff and MIEF1/2” (Frontiers in Cell and Developmental Biology, 2021)

Molecular target: the molecule itself
Test: cross-linking; in vivo: intact 293T cells (WT; MIEF1/2/Mff-/-; overexpressing MIEF1-V5, MIEF2-V5 or Myc-Mff; or Drp1-/- transfected with untagged Drp1 for 18 h) with 1 mM DSS in PBS with Ca2+/Mg2+, time course or 3 h, room temperature, quenched with 50 mM Tris pH 7.5; reducing SDS-PAGE and Western blot

B1: untagged […]D (natural protein)
chain: not shown
notes: human Drp1 isoform 1 with the disease-associated lethal mutation A395D, untagged; Made by site-directed mutagenesis on untagged Drp1-WT; Copies: said to form mainly tetramers (~280 kDa)
- stoichiometry N: 4
